These are yes or no findings as the source states them, for the method shown.

Chains of the proteins cited; added tags and fusions are not shown. Lines headed by an entry give the natural chain unless they say otherwise; changes in a name come on top. A line that says so, or that is headed by a name, gives the form on record, which may keep a tag or linker.
Recombinant human sTNF (soluble form of tumor necrosis factor) (P01375, form named): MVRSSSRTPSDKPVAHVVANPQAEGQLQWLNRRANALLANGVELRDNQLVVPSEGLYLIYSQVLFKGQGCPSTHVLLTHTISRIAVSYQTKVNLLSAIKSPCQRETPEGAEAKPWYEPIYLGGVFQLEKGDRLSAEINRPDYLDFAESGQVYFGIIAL
UniProt P29034: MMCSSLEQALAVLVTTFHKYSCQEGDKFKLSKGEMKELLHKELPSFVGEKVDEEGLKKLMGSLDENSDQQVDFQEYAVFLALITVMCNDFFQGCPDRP
UniProt P26447: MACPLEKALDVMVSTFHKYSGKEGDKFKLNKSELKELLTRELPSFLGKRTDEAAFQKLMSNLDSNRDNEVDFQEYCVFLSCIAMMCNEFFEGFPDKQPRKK
UniProt P60903: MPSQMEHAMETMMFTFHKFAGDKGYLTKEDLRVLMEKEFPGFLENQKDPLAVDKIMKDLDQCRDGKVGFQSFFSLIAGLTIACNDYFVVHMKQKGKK

The assay concerns the target Recombinant human sTNF (soluble form of tumor necrosis factor) (human) (UniProt P01375). The assay can be described thus: SPR; ligand (50 μg/mL sTNF or TNF-β) immobilised on a ProteOn GLH chip by amine coupling; chip flushed with running buffer for two days and several times with 10 mM glycine pH 3.3 to dissociate sTNF multimers (monomeric sTNF); Ca2+-loaded S100 protein as analyte, 10 nM–2 µM; 25 °C; 10 mM HEPES, 150 mM NaCl, 1 mM CaCl2, 0.05% TWEEN 20, pH 7.4; heterogeneous ligand model; both purified. In general terms: SPR reads the build-up and loss of mass on a sensor chip optically.
“Recombinant human S100A2 (from UniProt P29034 1-98)”: the binding entry is on record as “no binding (tested: up to 2 µM; Kd exceed 10^−4 M)”.
“Recombinant human S100A4 (from UniProt P26447 1-101)”: the binding result is “no binding (tested: up to 2 µM; Kd exceed 10^−4 M)”.
Turning to “Recombinant human S100A10 (from UniProt P60903 1-97)”, the binding entry is given as “no binding (tested: up to 2 µM; Kd exceed 10^−4 M)”.

The record behind these values is PMC9783754.
